Experimental data from the RNAGym collection of RNA variant scans (doi:10.1093/nar/gkz1192).
The source gives no read counts; variants with many changes may rest on few reads.

B1: CPEB3 Ribozyme (parent)
chain: UAACAGGGGGCCACAGCAGAAGCGUUCACGUCGCAGCCCCUGUCAGAUUCUGGUGAAUCUGCGAAUUCUGCUGUAUAUCUC

Variants of: B1
Test: self-cleavage, relative activity (ratio to wild type); higher = more cleavage; in vitro, sequencing
Procedure, shortened: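 For each CPEB3 ribozyme variant, relative activity is its cleaved/total read fraction divided by the unmutated ribozyme's. Barcoded error-prone PCR libraries were transcribed by T7 RNA polymerase (5 hours, 37°C) and held in DNase I for 15 min before an EDTA stop, with cleavage occurring throughout. Template-switching reverse transcription and Illumina sequencing were used to read the RNAs. A 5-read minimum applied, and results are the mean of three batches.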

Variant	self-cleavage
A13G U31C G33C G36C C68U	0.14
A13G U31C U41A U43C	0.2
A13G U31C U41A U69C	0.16
A13G U31C U43C	0.26
A13G U31C U51A U58A	0.09
A13G U31C U54A A64C	0.05
A13G U31C U54C	0.71
A13G U31G U51C U58C	0.2
A13G U41A A56G U74A	0.32
A13G U41A A57G	0.25
A13G U41A A57G G63A U69C U72C U78C	0.07
A13G U41A A57G U69C	0.11
A13G U41A A57G U69C U78C	0.14
A13G U41A G55U U58C U78A	0.14
A13G U41A U51A A57G U60A	0.04
A13G U41A U51A U54C U78C	0.27
A13G U41A U54C A56G U69C U74A A77G	0.16
A13G U41A U54G U80A	0.18
A13G U41A U66G U78C	0.06
A13G U41A U76C	0.07
A13G U41C A64G U67C U78C	0.06
A13G U41C A64U U69A U72C U80C	0.08
A13G U41C A65G U80C	0.19
A13G U41C G52C	1.01

Variant	self-cleavage
A13G U41C G63U A65U	0.11
A13G U41C U43A	0.44
A13G U41C U43C	0.43
A13G U41C U49C U60C A77G	0
A13G U41C U49C U72G	0.43
A13G U41C U51C U54C U78C	0.61
A13G U41C U69C	0.34
A13G U41C U72A U80A	0.84
A13G U41C U72C	0.84
A13G U41C U74A U78C	1.08
A13G U41C U74C	0.67
A13G U41C U78A	0.44
A13G U41G A45G U54C U72C	0.05
A13G U41G U51C U66C	0.08
A13G U41G U54A	0.41
A13G U43A A45G A47U A64G	0.11
A13G U43A A64U	0.44
A13G U43A G46C A57G	0.24
A13G U43A U60C U78C	0.61
A13G U43A U67A	0.33
A13G U43C A56G A64G U76C	0.09
A13G U43C C44G G52A A65G U72C	0.07
A13G U43C U48A A56G A57G	0.23
A13G U43C U49C U66A	0.08

Variant	self-cleavage
A13G U43C U51C A56G U60C U69C U80A	0.26
A13G U43C U60C	0.79
A13G U43C U60C U78C	0.12
A13G U43C U66C U80C	0.19
A13G U43C U67C	0.09
A13G U43C U78A	0.85
A13G U43G A45G A57G	0
A13G U43G U54A	0.34
A13G U48A U60C	0.14
A13G U48A U67A	0.23
A13G U48C A57G U69C U80A	0.57
A13G U48C A65G U72C	0.13
A13G U48C C68U	0.3
A13G U48C U49G	0.07
A13G U48C U51C A64U	0.18
A13G U48C U51C C71G C81G	0.41
A13G U48C U58C U67C U76C	0.11
A13G U49A U58A U80C	0.08
A13G U49A U60C U69C U76G	0.14
A13G U49A U74A	0.77
A13G U49A U74C U80C	0.24
A13G U49A U78C	0.51
A13G U49C U51G G63A A64G	0.29
A13G U49C U58C	0.18

Variant	self-cleavage
A13G U49C U60C U69C	0.08
A13G U49C U67C U69A	0.15
A13G U51A A65U U66C	0.18
A13G U51A A75U	1.02
A13G U51A U67C	0.23
A13G U51A U69G	0.46
A13G U51A U72A	0.57
A13G U51C A56U	0.45
A13G U51C A65G	0.35
A13G U51C G53A	1.13
A13G U51C U58C U67C	0.17
A13G U51G A65G	0.62
A13G U51G G53A U72C	1
A13G U51G U60C	0.27
A13G U54A U58C	0.55
A13G U54C A56G	0.67
A13G U54C U66C C68U U69C	0.08
A13G U54C U67C G70A	0.11
A13G U54C U72A C79U	0.89
A13G U54C U72A U78A	0.34
A13G U54C U78C	0.93
A13G U54G U66C	0.17
A13G U58A A65C	0.14
A13G U58C U60C U69C U76A	0.08

Variant	self-cleavage
A13G U60C A64G	0.17
A13G U60C C62A	0.25
A13G U60C U69C U78C	0.25
A13G U60C U80A	0.47
A13G U60G U69C	0.17
A13G U66C A75G A77G	0.11
A13G U66C U69C	0.22
A13G U67A G73A	0.82
A13G U67A G73U	0.54
A13G U67C U69A	0.24
A13G U67C U72C	0.36
A13G U69A U72A	0.21
A13G U69A U74G U78C	0.41
A13G U69C U74A	0.32
A13G U69C U76C A77G	0.33
A13G U72A A77G U78C	0.72
A13G U72A U80C	1
A13G U72C A77U	0.33
A13G U72C U76C U80A	1.19
A13G U72C U78G	0.68
A13G U78C C79U	0.8
A13U A15C A20U C37U C39U A45G A56U	0.09
A13U A15C A21G C34U A35G	0.4
A13U A15C A28G C37A	0.17

Variant	self-cleavage
A13U A15C U25C U41C A65G U78C	0.39
A13U A15G A18U U26C C38A A56G U80C	0.07
A13U A15G A20G A35U	0.14
A13U A15G A20G G36C U41A A65G A75G	0.03
A13U A15G A20G U41A A45G U51C A57U	0
A13U A15G A20U G24C C38U	0.25
A13U A15G A21G A47G U72A	0.07
A13U A15G A21G U25A U72A	0.18
A13U A15G A28C G55A	0.24
A13U A15G A28U A56G A65U U69A U78A	0.08
A13U A15G A28U U54C A77G	0.64
A13U A15G A35G A64U	0.19
A13U A15G A35G U51A	1.05
A13U A15G A35U U51A A56G U74C	0.74
A13U A15G A47G	0.61
A13U A15G A56G	0.66
A13U A15G A56G U72C	1.17
A13U A15G A64U A77G U78C	0.14
A13U A15G C32U A64U U69A A75G	0.06
A13U A15G G24C U26A G33U U67C U76A	0.05
A13U A15G G36U	0.09
A13U A15G U25C U43C C71G	0.06
A13U A15G U25C U48C U58A U67C	0.1
A13U A15G U26A	0.74

Variant	self-cleavage
A13U A15G U31C G42A U48C U51C	0.06
A13U A15G U41C	0.8
A13U A15G U41C A65G U78C	0.26
A13U A15G U41C U51C U54C U78C	0.38
A13U A15G U69A U76C	0.31
A13U A15G U80A	0.66
A13U A15U A18G C27U C32U U41C U43A	0.23
A13U A15U A18U U72C U76C	0.26
A13U A15U A21G U51A A57G	0.2
A13U A15U A21G U66C A75G	0.39
A13U A15U A28G A35G U43C A56G	0.51
A13U A15U A28G U49C U54G	0.17
A13U A15U A35G U72C	0.99
A13U A15U A45G	0.63
A13U A15U A47G	0.4
A13U A15U A56G A64U U78C U80A	0.12
A13U A15U C17A A18U A20C U41C	0.11
A13U A15U C17U G24A	0.29
A13U A15U C37A A64U U67A U72C	0.08
A13U A15U G22A G33A	0.05
A13U A15U G22A U54A	0.16
A13U A15U U25C	0.2
A13U A15U U54C A64G U69A	0.1
